# According to PubChem BioAssay AID1347120 (National Center for Advancing Translational Sciences (NCATS), 2019):
# The whole screen tested about 390,000 compounds, of which about 930 (0.24%) were called active. This list was built around the results that the source calls inconclusive (neither active nor inactive); the mix of calls is not that of the screen. Calls follow the shape of the dose curve; as a rule, active = well fitted activation curve with a large enough effect; inconclusive = small, poorly fitted or top-dose-only effect; inactive = no such curve, though single readings can be large or run the other way. Potencies beside an inconclusive call are fits to weak or partial responses and may not hold up.
# Experiment: qHTS for Suppressors of FUS Proteinopathy: Primary screen using FUS-linked yeast assay; also: nearly all actives have a fitted effect of over 55% in size;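 as to growth rescue (activation): plate controls were DMSO vehicle for no effect and reference control for full effect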
# Settings: S. cerevisiae FUS-expressing, OD600, 24 h; Potency: growth rescue; growth rescue (activation): at 76.6 µM (top of the series)
# Method in brief: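 Yeast expressing FUS under galactose induction, OD 0.005 in 2% galactose medium; compounds in a dilution series, 24 h at 30C. Growth rescue by absorbance at 600 nm; CP55940 positive control, DMSO negative.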
# Potency is read from the fitted curve at half-maximal effect; tags tell the direction and shape of the fitted curve.
Structure (SMILES),Potency,growth rescue (activation)
COc1ccc(NC(=O)c2oc3ccccc3c2NC(=O)c2cc(OC)c(OC)c(OC)c2)cc1,"inconclusive: 3.55 µM [activator, full curve]",
COc1ccc(C(C)(O)c2nc(-c3ccc(Cl)cc3)cs2)cc1 (stereo not drawn),"inconclusive: 35.5 µM [activator, single point]",
CN1[C@@H](Cc2ccccc2)COc2cc(N3CCCC3)ccc2S1(=O)=O,,inactive: -9.76%
COc1ccc(CCNC(=O)Cn2c(-c3cccs3)cc3cc(F)ccc32)cc1OC,,inactive: -11%
Cc1ccccc1-c1nn2c(=O)cc(CN3CCN(C(=O)c4ccccc4Br)CC3)nc2s1,,inactive: -7.08%
O=C(NC(=S)NCC1CCCO1)c1ccccc1F (stereo not drawn),,inactive: -16.9%
O=C(Cn1c2ccccc2c2nc3n(c(=O)c21)CCS3)Nc1ccccc1C(F)(F)F,"inconclusive: 3.98 µM [activator, full curve, poor fit]",
Cn1c(=O)c2c(nc(CN3CCN(c4cccc(Cl)c4)CC3)n2CCc2ccccc2)n(C)c1=O,"inconclusive: 28.2 µM [activator, partial curve, poor fit]",
CC(C)(C)CCN1CCC[C@H](NC(=O)COc2ccc(F)c(Cl)c2)C1,,inactive: -2.04%
COc1ccc(S(=O)(=O)N2CCCCCC2)cc1C(=O)N(C)Cc1ccc(Cl)cc1Cl,"inconclusive: 39.8 µM [activator, single point]",
Cc1ccc(C2C(C(=O)c3ccco3)=C(O)C(=O)N2c2ncccn2)cc1 (stereo not drawn),,inactive: 3.73%
O=C(CCC1N=C2c3ccccc3N=C(SCc3cccc(Cl)c3)N2C1=O)NCc1cccs1 (stereo not drawn),,inactive: -6.85%
COc1cc(C(=O)NCCSc2c(-c3ccccc3)[nH]c3ccccc23)cc(OC)c1OC,"inconclusive: 12.6 µM [activator, partial curve]",
Cc1ccc(S(=O)(=O)Nc2cc(=O)[nH]c(SCC(=O)Nc3ccccc3C(F)(F)F)n2)cc1,,inactive: 17.9%
Clc1ccc(-c2ccc(/C=N/Nc3cc(N4CCOCC4)nc(N4CCOCC4)n3)o2)cc1,"inconclusive: 25.1 µM [activator, single point]",
CC(C)NS(=O)(=O)c1ccc(OCC(=O)N2CCN(c3ccccc3F)CC2)cc1,,inactive: 34.1%
O=C(c1cc(COc2cccc3cnccc23)on1)N1CCC(c2ccccc2Cl)C1 (stereo not drawn),"inconclusive: 8.91 µM [activator, partial curve, poor fit]",
CCOc1ccc(Nc2ncnc(N)n2)cc1,,inactive: -6.36%
O=C(c1ccc2c(=O)n3c(nc2c1)CCCCC3)N1CCN(C(c2ccccc2)c2ccccc2)CC1,"inconclusive: 11.2 µM [activator, single point]",
Cc1cc(Nc2cccc(Cl)c2)nc2ccc(NC(=O)c3ccc(F)cc3Cl)cc12,"inconclusive: 31.6 µM [activator, partial curve, poor fit]",
O=C(Nc1ccccc1C(=O)OCc1cc(=O)n2ccsc2n1)c1cccc(F)c1,,inactive: 9.12%
COc1ccc(C(=O)NNC(=O)C(Cc2ccc(O)cc2)NC(=O)c2ccccc2NC(=O)c2ccc(OC)cc2)cc1 (stereo not drawn),,inactive: 11.8%

Structure (SMILES),Potency,growth rescue (activation)
Cc1ccc(Cl)cc1NC(=O)C1CCCN(S(=O)(=O)c2c(C)noc2/C=C/N(C)C)C1 (stereo not drawn),"inconclusive: 50.1 µM [activator, single point]",
CC1(C)Oc2ccc(NC(=O)C3COc4ccccc4O3)cc2O1 (stereo not drawn),,inactive: -0.67%
CCOC(=O)[C@]12CCC=C1N(Cc1ccc3c(c1)OCO3)C(=O)[C@H](CC(=O)NCC13CC4CC(CC(C4)C1)C3)C2,"inconclusive: 14.1 µM [activator, partial curve, poor fit]",
Cc1ccc(NC(=O)C2C3CC4OC(=O)C2C4C3)cc1Cl (stereo not drawn),"inconclusive: 11.2 µM [activator, single point]",
COc1ccc(/C=C/C(=O)N2CCN(S(=O)(=O)c3ccccc3Br)CC2)cc1OC,"inconclusive: 31.6 µM [activator, single point]",
O=C(NCCc1ccccc1)c1cc(-c2ccccc2)nc2n[nH]c(-c3ccccc3)c12,,inactive: 10.5%
CS(=O)(=O)N[C@@H]1C[C@@H]2O[C@H](CO)CC[C@@H]2O[C@@H]1CCc1ccc(/C=C/c2ccccc2)cc1,,inactive: 25.1%
COc1cccc(C2C(C(C)=O)=C(O)C(=O)N2CCc2c[nH]c3ccccc23)c1 (stereo not drawn),"inconclusive: 28.2 µM [activator, single point]",
C=CCc1ccc(O)c(-c2cc(CC=C)ccc2O)c1,"inconclusive: 5.01 µM [activator, full curve]",
CC(=O)/C(=N/Nc1ccccc1)N1CCOCC1,,inactive: 19.1%
COc1ccc2c(c1)C(=O)N(CCc1ccc(S(=O)(=O)NC(=O)NC3CCCCC3)cc1)C(=O)C2(C)C,"inconclusive: 35.5 µM [activator, partial curve]",
CCOc1ccccc1Nc1sc(C(=O)c2ccc(Cl)cc2)c(N)c1C#N,,inactive: 3.37%
Cc1ccc(N(C(=O)Cn2nnc(-c3ccc(F)cc3)n2)C(CC(C)C)C(=O)NCC2CCCO2)cc1 (stereo not drawn),"inconclusive: 28.2 µM [activator, single point]",
Cc1cc(C(C#N)c2ccc(Cl)cc2)c(Cl)cc1NC(=O)c1cc(I)cc(I)c1O (stereo not drawn),,inactive: -19.3%
CCCn1nnc(NC(=O)COc2cc(C)ccc2C(C)C)n1,"inconclusive: 35.5 µM [activator, partial curve, poor fit]",
Cc1ccc(C(C)NC(=O)C2CCCC2)c(C)c1 (stereo not drawn),,inactive: 15.8%
Cc1cccn2c(=O)c(/C=C(\C#N)C(N)=O)c(N3CCN(c4cccc(Cl)c4)CC3)nc12,"inconclusive: 39.8 µM [activator, partial curve, poor fit]",
COc1cccc(NC(=O)CN(C)C(=O)c2cccc(NS(=O)(=O)c3ccccc3)c2)c1,"inconclusive: 20 µM [activator, partial curve]",
Cn1cc(C(=O)O)c(=O)c2cc(S(=O)(=O)N3CCCCC3)ccc21,"inconclusive: 28.2 µM [activator, single point]",
CC(C)CN(C(=O)COC(=O)COc1ccc2ccccc2c1)c1c(N)n(Cc2ccccc2)c(=O)[nH]c1=O,,inactive: 14.2%
CCN(CC)C(=O)[C@H]1CC(CC(=O)NCC23CC4CC(CC(C4)C2)C3)C(=O)N2CCc3c([nH]c4ccc(OC)cc34)[C@]12C (stereo partly drawn),"inconclusive: 17.8 µM [activator, partial curve, poor fit]",
